Assay results reported in PubChem BioAssay AID504332 (National Center for Advancing Translational Sciences (NCATS), 2011).
Out of some 350,000 compounds screened, about 31,000 (8.9%) were called active. This list was built around the results that the source calls inconclusive (neither active nor inactive); the mix of calls is not that of the screen. Calls come from the whole dose curve; as a rule, active = well fitted inhibition curve with a large enough effect; inconclusive = small, poorly fitted or top-dose-only effect; inactive = no such curve, though single readings can be large or run the other way. A potency beside an inconclusive call is a rough fit, not a confirmed value.

Target: Histone-lysine N-methyltransferase EHMT2 (Homo sapiens) (UniProt Q96KQ7)
Experiment: qHTS Assay for Inhibitors of Histone Lysine Methyltransferase G9a; note: nearly all actives have a fitted effect of over 75% in size
Conditions: G9a H3K9 monomethylation, AlphaScreen, 2 h; activity, negative = inhibition: at 59 µM (top of the series) unless noted
Procedure, shortened: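 G9a (20 nM) was preincubated 15 min with compound, then reacted 2 h at room temperature with 500 nM biotin-H3K9 peptide and 20 µM SAM. Monomethyl-H3K9 detected by AlphaScreen using anti-H3K9me1 antibody.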
% is set by controls: 0 for no effect and ±100 for the full control effect; potency is the fitted concentration of half-maximal effect; tags give direction and shape of the fitted curve.

UniProt Q96KQ7, sequence (Q96KQ7 whole entry, looked up): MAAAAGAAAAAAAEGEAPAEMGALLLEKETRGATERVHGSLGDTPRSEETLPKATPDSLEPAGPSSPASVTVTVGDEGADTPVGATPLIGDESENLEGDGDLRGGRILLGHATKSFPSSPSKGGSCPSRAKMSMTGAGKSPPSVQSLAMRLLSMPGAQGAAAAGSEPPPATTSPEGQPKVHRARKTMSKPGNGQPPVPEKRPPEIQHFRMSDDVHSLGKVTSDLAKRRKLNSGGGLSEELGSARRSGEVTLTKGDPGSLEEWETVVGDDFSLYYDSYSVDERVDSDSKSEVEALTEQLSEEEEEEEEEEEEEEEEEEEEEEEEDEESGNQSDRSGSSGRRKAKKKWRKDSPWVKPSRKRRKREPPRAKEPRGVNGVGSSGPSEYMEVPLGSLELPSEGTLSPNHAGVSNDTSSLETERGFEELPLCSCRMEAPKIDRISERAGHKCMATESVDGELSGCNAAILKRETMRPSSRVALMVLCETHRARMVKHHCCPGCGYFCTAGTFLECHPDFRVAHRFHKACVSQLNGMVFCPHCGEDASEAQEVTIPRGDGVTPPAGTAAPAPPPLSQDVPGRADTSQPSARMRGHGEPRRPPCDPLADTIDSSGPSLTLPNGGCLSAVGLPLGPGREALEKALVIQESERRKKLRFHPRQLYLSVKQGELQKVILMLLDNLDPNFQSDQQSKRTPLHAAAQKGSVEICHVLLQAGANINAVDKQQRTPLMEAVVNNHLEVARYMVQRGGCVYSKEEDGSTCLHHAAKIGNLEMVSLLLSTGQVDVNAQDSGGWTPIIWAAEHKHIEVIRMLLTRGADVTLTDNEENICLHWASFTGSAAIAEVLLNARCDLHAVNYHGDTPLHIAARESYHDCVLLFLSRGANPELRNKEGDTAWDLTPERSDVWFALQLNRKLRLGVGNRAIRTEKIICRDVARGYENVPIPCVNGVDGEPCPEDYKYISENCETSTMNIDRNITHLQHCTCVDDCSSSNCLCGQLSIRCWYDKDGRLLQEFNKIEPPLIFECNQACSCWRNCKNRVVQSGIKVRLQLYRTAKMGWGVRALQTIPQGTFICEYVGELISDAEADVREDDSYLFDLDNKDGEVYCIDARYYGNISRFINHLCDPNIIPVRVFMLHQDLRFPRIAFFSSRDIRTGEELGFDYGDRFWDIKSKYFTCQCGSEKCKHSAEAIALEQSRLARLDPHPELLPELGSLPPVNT

SMILES | Potency | activity, negative = inhibition
C/C(=N\NC(=O)c1cccc(S(=O)(=O)Nc2ccccc2Cl)c1)c1ccco1 | inactive | 
CCN1CCC(NCCc2ccc(F)cc2)CC1 | inconclusive: 89.1 µM [inhibitor, single point] | 
O=C(Nc1ccccc1Cl)c1csc(-c2cccnc2)n1 | inconclusive: 79.4 µM [inhibitor, single point] | 
Cc1ccc2c(c1)c1c3n2CCN(CC(O)CNC(C)C)C3CCC1 (centres undefined) | inconclusive: 22.4 µM [inhibitor, single point] | 
CCC(=O)Nc1cccc(-c2nnc(SCC(=O)c3ccccc3)n2C)c1 | inconclusive: 28.2 µM [inhibitor, single point] | 
CC(C)(Oc1ccc(Cl)cc1)C(=O)NCc1ccncc1 | inconclusive: 25.1 µM [inhibitor, partial curve, poor fit] | 
c1csc(CN2CCOCC2)c1 | active: 8.91 µM | 
Cc1nn(C(=O)c2ccccc2F)c(C)c1S(=O)(=O)N1CCOCC1 | inconclusive: 20 µM [inhibitor, single point] | 
CCc1cc2c(=O)[nH]c(Cc3ccccc3)nc2s1 | inconclusive: 25.1 µM [inhibitor, single point] | 
c1ccc(NCc2ccncc2)cc1 | inactive | 
CCOC(=O)c1c(C)c(C(=O)NCc2ccc(OC)cc2)c(C)n1C | inactive | 
Cc1c(C(=O)N2CCC(C)CC2)c(S(=O)(=O)NCc2ccccc2)c(C)n1C | inactive | 
COc1cc(/C=C/C(=O)OCC(=O)NCc2ccccc2OC)ccc1O | inconclusive: 70.8 µM [inhibitor, partial curve, poor fit] | 
O=C(CCCN1C(=O)C(c2ccccc2)Oc2cccnc21)NCCc1ccc(Cl)cc1 (centres undefined) |  | inactive: 2.13% [at 0.0925 µM]
CCC1CCCCN1C(=O)CCS(=O)(=O)c1ccccc1 (centres undefined) | inconclusive: 31.6 µM [inhibitor, partial curve, poor fit] | 
O=C1CCc2cc(NS(=O)(=O)c3ccc(Br)cc3)cc3c2N1CC3 | inconclusive: 79.4 µM [inhibitor, partial curve, poor fit] | 
Cc1ccc(-c2cccc(NC(=O)C3C(C(=O)O)[C@@H]4C=C[C@H]3C4)c2)o1 (some centres undefined) | active: 15.8 µM | 
COc1ccccc1CN1CCNC(=O)C1CC(=O)N(C)Cc1nc(C)cs1 (centres undefined) | active: 50.1 µM | 
CN(C)CCNc1nc(S(=O)(=O)c2ccccc2)c(Cl)s1 | inconclusive: 89.1 µM [inhibitor, partial curve, poor fit] | 
CC(=O)Nc1ccc(Nc2nc(-c3ccccc3)nc3ccccc23)cc1 | inconclusive: 56.2 µM [inhibitor, partial curve] | 
CCOc1ccccc1NS(=O)(=O)c1c(C)nc2sccn2c1=O | inactive | 
Cc1ccc(C(=O)Nc2ccc(Br)cc2)cc1S(=O)(=O)N1CCOCC1 | inactive | 
COc1ccccc1NS(=O)(=O)c1cccc(C(=O)NCC(c2ccccc2OC)N2CCCC2)c1 (centres undefined) | inconclusive: 44.7 µM [inhibitor, partial curve, poor fit] | 
CC(=O)c1cccc(NC(=O)Cn2c(=O)c(CNc3ccc(C)cc3)cc3cc4c(cc32)OCCO4)c1 | inconclusive: 3.98 µM [inhibitor, full curve] | 
COc1ccccc1C(=O)Nc1ccc2nc(N3CCC(C)CC3)cc(C)c2c1 | inactive | 

SMILES | Potency | activity, negative = inhibition
c1ccc2c(c1)OCCc1c-2[nH]c2ccccc12 | inconclusive: 79.4 µM [inhibitor, single point] | 
CC(C)CC(NS(=O)(=O)c1cccc(C(=O)O)c1)C(=O)O (centres undefined) | inconclusive: 0.447 µM [inhibitor, full curve, poor fit] | 
CN(C)C(=O)n1nnnc1Cc1ccc(-c2ccccc2)cc1 | inactive | 
COc1cccc(C(=O)C2CCCN(CC3=Cc4cc(OC)ccc4OC3)C2)c1 (centres undefined) | inconclusive: 12.6 µM [inhibitor, partial curve] | 
COc1ccc(C(=O)NC2CC(C)(C)Cc3c2cnn3-c2ccccc2C)o1 (centres undefined) | inconclusive: 15.8 µM [inhibitor, full curve] | 
O=C(NCC(c1ccco1)N1CCc2ccccc21)c1ccccc1Cl (centres undefined) |  | inactive: 23% [at 0.501 µM]
COc1ccccc1-n1c(-c2ccc(NS(C)(=O)=O)cc2)n[nH]c1=S | active: 3.16 µM | 
COc1ccc(SC[C@H](CC(C)C)N2CCN(CCc3ccccc3)CCC2=O)cc1 | inactive | 
CC1CCCCN1S(=O)(=O)c1ccc(S(=O)(=O)N2CCN(c3ccc(F)cc3)CC2)cc1 (centres undefined) | inconclusive: 1.78 µM [inhibitor, full curve, poor fit] | 
CCn1c(=O)c2cc(C(=O)N(CCCOC(C)C)Cc3ccco3)sc2c2ccccc21 | inactive | 
Cc1ccc(-n2c(SCC3CNC(=O)O3)nnc2-c2ccccc2)cc1C (centres undefined) | inactive | 
C#C[C@]1(O)CC[C@@H]2[C@H]3CCC4=Cc5oncc5C[C@]4(C)[C@@H]3CC[C@@]21C | inactive | 
CCC(C)(C)NC(=O)C(c1ccc(OC)cc1)N(C(=O)CCC(=O)Nc1cc(C)on1)c1ccccc1F (centres undefined) | inconclusive: 89.1 µM [inhibitor, partial curve, poor fit] | 
COc1ccc(N=Cc2nc(-c3ccco3)oc2O)cc1 | inconclusive: 39.8 µM [inhibitor, single point] | 
O=C(c1ccc(F)cc1)C(CN1CCOCC1)c1ccccc1 (centres undefined) | inconclusive: 31.6 µM [inhibitor, single point] | 
CCOc1ccc(CN(CCC#N)C(=S)NC(=O)c2ccccc2)cc1 | active: 1.41 µM | 
CNC(=S)N(CCc1c(C)[nH]c2ccc(Cl)cc12)Cc1cc(OC)c(OC)c(OC)c1 | active: 31.6 µM | 
CCN(CC)S(=O)(=O)c1cccc(C(=O)Nc2ccc(S(=O)(=O)NC3=NCCCCC3)cc2)c1 | active: 15.8 µM | 
O=C(Nc1ccccc1C(=O)O)C1=NN=CC1 | active: 50.1 µM | 
COc1ccc(N(CC(=O)N2CCc3ccccc3C2)S(=O)(=O)c2c(C)nn(C)c2C)cc1 | inconclusive: 100 µM [inhibitor, single point] | 
CCC(C)NC(=O)CNS(=O)(=O)c1ccc(C)cc1 (centres undefined) | inconclusive: 17.8 µM [inhibitor, single point] | 
COc1cccc(CNC(=O)C2CCN(S(=O)(=O)c3ccc4c(ccn4C)c3)CC2)c1 | inactive | 
COc1cccc(/C=C(/C#N)c2ccc(Cl)cc2)c1OCc1cccc(C(=O)O)c1 | inconclusive: 70.8 µM [inhibitor, partial curve, poor fit] | 
CC1CCCN(c2ccc(C(=O)NCc3ccco3)cc2[N+](=O)[O-])C1 (centres undefined) | inconclusive: 35.5 µM [inhibitor, single point] | 
O=C(CCN1C(=O)/C(=C/c2ccc(F)cc2)SC1=S)NNC(=O)c1ccncc1 | inactive | 

SMILES | Potency | activity, negative = inhibition
COc1ccc(C)cc1Nc1nc2ccccc2c2nnc(C)n12 | inconclusive: 10 µM [inhibitor, partial curve, poor fit] | 
COc1ccc(CNc2cc(NCCCO)c([N+](=O)[O-])c3nonc23)cc1 | inconclusive: 89.1 µM [inhibitor, partial curve, poor fit] | 
O=C(NCC(c1cccs1)N1CCOCC1)c1ccccc1NS(=O)(=O)c1cccc([N+](=O)[O-])c1 (centres undefined) | inactive | 
CS(=O)(=O)c1ccc(C(=O)Nc2ccc(N3CCCC3)cc2)c(Cl)c1 | active: 10 µM | 
C=CC[n+]1c(-c2ccc(C)cc2)csc1NNC(=O)Nc1ccccc1 |  | inconclusive: -95.6% [inhibitor]
CCN1CCN(CC(=O)Nc2nc3ccc(OC)cc3s2)CC1 | active: 2 µM | 
CC(=O)Nc1ccc(NS(=O)(=O)c2cc(-c3n[nH]c(=O)c4ccccc34)ccc2C)cc1 | inactive | 
CC(C)c1nc2ccc(C(=O)NCc3ccc(N(C)C)cc3)cc2o1 | active: 15.8 µM | 
COc1ccc(OC)c(S(=O)(=O)Nc2cc3c(cc2N2CCCC2)n(C)c(=O)c(=O)n3C)c1 | active: 10 µM | 
CCOC(=O)C1=C(C)NC(c2cccs2)C(=O)N1 (centres undefined) | inconclusive: 0.501 µM [inhibitor, partial curve, poor fit] | 
COCc1ccc(C(=O)N2CCCC(Nc3ccc4c(c3)OCCO4)C2)o1 (centres undefined) | inconclusive: 56.2 µM [inhibitor, single point] | 
Cc1ccc(NC(=S)Nc2cccc3cnccc23)cc1 | active: 35.5 µM | 
O=C(CCc1ccccc1)NCCCN1CCOCC1 | inactive | 
Cc1cc(NS(=O)(=O)c2ccc3nc(-c4ccccc4)[nH]c3c2)ccc1Br | inactive | 
CCCN(CC(=O)Nc1ccccc1OC)C(=O)CCNC(=O)c1ccccc1OC |  | inactive: 12.1% [at 2.33 µM]
O=C(CN1C(=O)CSc2ccccc21)Nc1ccc2c(c1)OCCO2 | inconclusive: 89.1 µM [inhibitor, single point] | 
COc1ccc(Cl)cc1NC(=O)c1cc(S(=O)(=O)N2CCC(C)CC2)cn1C | inactive | 
CCN1CCN(C(c2cccc(F)c2)c2c(O)cc(C)n(CCOC)c2=O)CC1 (centres undefined) | inconclusive: 28.2 µM [inhibitor, single point] | 
CC1CCCN(CCCOc2ccccc2-c2ccccc2)C1 (centres undefined) | active: 11.2 µM | 
CCOc1ccc(CNC(=O)CCC(=O)N2CC3CCCN3c3ccccc32)cc1 (centres undefined) | inactive | 
CCOc1ccc2nc(NC(=O)CN3C(=O)C4CCCCC4C3=O)sc2c1 (centres undefined) | inconclusive: 79.4 µM [inhibitor, single point] | 
COc1cccc(C(=O)Nc2cc3c(cc2N2CCCC2)n(C)c(=O)n3C)c1 | active: 44.7 µM | 
Cc1ccc(N2CC(c3nnc(NC(=O)c4ccco4)s3)CC2=O)cc1Cl (centres undefined) | inactive | 
CCOC(=O)c1c(-c2ccsc2)csc1N | inactive | 
